According to patent US11413278B2, “Compounds and methods for promoting stress resistance” (priority 2015, dated 2022):
At least one read-out could not be matched to a standard name with certainty.

Test system: WI-38 cells
Details: for Screen 1: Screening, at 10 uM (viability assay by ATP measurement, normalized fold-change shown, >=2.5): 24 h, then 700 μM H2O2 3 h, normalized to DMSO; for Screen 2: Dose response, at 10 uM (viability assay by ATP measurement, normalized fold-change shown, >=1.5) / Screen 3: Dose response, at 20 uM (viability assay by ATP measurement, normalized fold-change shown): H2O2 stress; for Exp. 1, under H2O2 stress treatment, at 10 uM (fold change): Exp. 1, WI-38 cells; for Exp. 1, under H2O2 stress treatment, at 10 uM (fold change) / Exp. 2, under H2O2 stress treatment, at 10 uM (fold change): normalized ATP measurement (Table 12); for Exp. 2, under H2O2 stress treatment, at 10 uM (fold change): Exp. 2, WI-38 cells; for Experiment 1, WI-38 cells (under H2O2 stress treatment), at 10 uM (fold change) / Experiment 2, WI-38 cells (under H2O2 stress treatment), at 10 uM (fold change): 10 uM (run along with HDF cells); for Dose response retest, at 10 uM (fold change) / Dose response retest, at 20 uM (fold change) / Library Screening, at 10 uM (fold change): H2O2-resistance of WI-38 cells; for Dose response retest, at 10 uM (fold change) / Dose response retest, at 20 uM (fold change): cherry-picked retest; for H2O2 stress treatment (3 hrs), at 10 uM (fold change): WI-38 cells, H2O2 3 hrs, normalized ATP measurement

| Compound | Screen 1: Screening, at 10 uM (viability assay by ATP measurement, normalized fold-change shown, >=2.5) [fold-change] | Screen 2: Dose response, at 10 uM (viability assay by ATP measurement, normalized fold-change shown, >=1.5) [fold-change] | Screen 3: Dose response, at 20 uM (viability assay by ATP measurement, normalized fold-change shown) [fold-change] | Exp. 1, under H2O2 stress treatment, at 10 uM (fold change) | Exp. 2, under H2O2 stress treatment, at 10 uM (fold change) | Experiment 1, WI-38 cells (under H2O2 stress treatment), at 10 uM (fold change) | Experiment 2, WI-38 cells (under H2O2 stress treatment), at 10 uM (fold change) | Dose response retest, at 10 uM (fold change) | Dose response retest, at 20 uM (fold change) | Library Screening, at 10 uM (fold change) | H2O2 stress treatment (3 hrs), at 10 uM (fold change) |
| --- | --- | --- | --- | --- | --- | --- | --- | --- | --- | --- | --- |
| O=C(CCCc1nnc2n3nc(-c4ccccc4)nc3c3ccccc3n12)N1CCOCC1 [O8] | 3.05 | 0.95 | 0.80 |  |  |  |  |  |  |  |  |
| COc1cc(-c2nc(C(N)=O)c3nc(O)n(-c4cccc(C)c4)c3n2)cc(Br)c1O [O9] | 3.05 | 1.11 | 1.59 |  |  |  |  |  |  |  |  |
| O=C(Nc1nc(C23CC4CC(CC(C4)C2)C3)cs1)C(c1ccccc1)c1ccccc1 [O10] | 3.12 | 1.83 | 2.32 | 4.75 | 2.45 | 2.51 | 13.37 | 1.83 | 2.32 | 3.12 | 1.34 |
| O=C(c1ccc([N+](=O)[O-])o1)N1CCc2ccccc21 [O13] | 4.21 | 1.50 | 2.09 | 2.34 | 1.84 | 2.70 | 27.16 | 1.50 | 2.09 | 4.21 | 1.96 |
| Oc1ncnc2sc3c(c12)CCC3 [O14] | 4.24 | 2.32 | 3.77 | 2.03 | 2.37 | 7.50 | 3.96 | 2.32 | 3.77 | 4.24 | 2.73 |
| CC(Nc1cc(C)ccn1)=C(C#N)C#N [O16] | 4.96 | 0.93 | 1.88 |  |  |  |  |  |  |  |  |
| [O-][n+]1onc2c3nsnc3c(Br)cc21 [O17] | 4.97 | 1.96 | 2.22 | 2.03 | 1.77 | 2.45 | 20.98 | 1.96 | 2.22 | 4.97 | 3.70 |
| Cc1cc(C)c(C(=O)/C=C/c2ccccc2F)c(O)n1 [O18] | 5.33 | 1.73 | 2.22 | 2.16 | 1.22 | 1.79 | 26.95 | 1.73 | 2.22 | 5.33 | 4.32 |
| O=C(CC1(O)C(=O)Nc2ccc(Br)cc21)c1ccc(Cl)cc1 (stereo not shown) [O19] | 6.45 | 1.28 | 1.34 |  |  |  |  |  |  |  |  |
